Experimental data taken from the supplement of paper PMC11171410.
“And” between values parts separate entries of the source, which are not always exact repeats. Equal values may be shown once. ± gives the standard deviation of the averaged measurements. Repeats are few or missing, and single values can be far off.

How the values were obtained:
[1] = tested on: SUDHL6 venetoclax-resistant; experiment: estimated IC50 (cell viability); higher = less potent
SUDHL6 parental = experiment: as above
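Also: compound screen comparing venetoclax-resistant SUDHL6, derived by months of escalating venetoclax exposure, with its matched parental line, IC50 from one-site nonlinear dose–response fit, geometric mean for duplicated compounds.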

| SMILES | estimated IC50 [1] | estimated IC50 (SUDHL6 parental) |
| --- | --- | --- |
| C/C(=N\NC(=S)N1CCC1)c1ccccn1 | 0.02 µM | 0.066 µM |
| CC(C)(C)c1cnc(CSc2cnc(NC(=O)C3CCNCC3)s2)o1 | 0.39 µM | 0.63 µM |
| CC(C)CC(=O)Nc1n[nH]c2c1CN(C(=O)C1CCN(C)CC1)C2(C)C | 1.77 µM | 7.19 µM |
| CC(C)N1CCN(Cc2cnc(-c3cc(-c4cccc5[nH]ccc45)cc4[nH]ncc34)o2)CC1 | 1.78 µM | 6.53 µM |
| CC(C)Oc1ccc(C(=O)N[C@H](CNC(=O)CN(C)C)Cc2ccc(-c3cn4cccc([C@H](C)O)c4n3)cc2)cc1Cl | 0.21 µM | 1.38 µM |
| CC(C)c1c2cc(-c3ccnc(NC4CCC(NC5CCOCC5)CC4)n3)ccc2nn1C (stereo unspecified) | 1.47 µM | 2.42 µM |
| CC(C)c1cc(C(=O)N2Cc3ccc(CN4CCN(C)CC4)cc3C2)c(O)cc1O | 0.35 µM | 0.59 µM |
| CC1(COc2ccc3c(c2)ncn3-c2ccc3cccc(N4CCC(N)CC4)c3n2)COC1 | 5.5 µM | 8.8 µM |
| CCc1cncnc1N1CCN(Cc2nc3ccc(C(F)(F)F)cc3[nH]2)CC1 | 5.82 µM | > 10 µM |
| CCn1c(-c2nonc2N)nc2c(C#CC(C)(C)O)ncc(OC[C@H]3CCCNC3)c21 | 6.56 µM | > 10 µM |
| CCn1c(=O)c(-c2cc[nH]n2)cc2c(C)nc(N)nc21 | 1.2 µM | 2.1 µM |
| CCn1c(CO)nn(-c2cc(O[C@@H](C)C(F)(F)F)c(C(=O)Nc3c(F)cccc3Cl)cc2F)c1=O | – | 0.001 µM |
| CN(C)CC#Cc1ccc(OCCCc2sc(N3CCc4cccc(C(=O)Nc5nc6ccccc6s5)c4C3)nc2C(=O)O)c(F)c1 | 4.58 µM | > 10 µM |
| CN(CCOc1ccc(-c2ccc3c(c2)OCO3)cc1C(C)(C)C)CC(=O)O | 5.69 µM | > 10 µM |
| CN(c1ncccc1CNc1nc(Nc2ccc3c(c2)CC(=O)N3)ncc1C(F)(F)F)S(C)(=O)=O | 2.55 µM and 3.4 µM | 5.15 µM and 5.6 µM |
| CN1C(=O)C(C)(C)Oc2c(-c3cn(C)c(=O)c4[nH]ccc34)cc(S(C)(=O)=O)cc21 | 1 µM | 1.74 µM |
| CN1CCN(c2ccc(OC(F)(F)F)c(Nc3ncc4c(n3)-c3c(c(C(N)=O)nn3CCO)CC4)c2)CC1 | 0.1 µM | 0.306 µM |
| CNCc1ccc(C)c(NC(=O)c2ccc(Nc3nc(-c4ccccc4)c4ccccc4n3)cc2)c1 | 1.97 ± 0.11 µM | 4.83 ± 1.1 µM |
| CNS(=O)(=O)Nc1nccc(Cc2c(C)c3ccc(Oc4ncccn4)cc3oc2=O)c1F | 4.7 µM | 9.6 µM |
| COc1cc(C2c3cc4c(cc3C(O)C3COC(=O)C23)OCO4)cc(OC)c1O (stereo unspecified) | 0.6 µM | 0.9 µM |
| COc1cc(F)ccc1-c1cc(Nc2cc(CS(C)(=N)=O)ccn2)ncc1F (stereo unspecified) | 0.16 µM | 0.29 µM |
| COc1cc(F)ccc1-c1ncnc(Nc2cccc(C[S@](C)(=N)=O)c2)n1 | 0.94 µM | 1.79 µM |
| COc1cc(N2CCC(N(C)C)CC2)ccc1Nc1ncc(Cl)c(Nc2ccccc2P(C)(C)=O)n1 | 4 µM | 6.6 µM |
| COc1cc(OC)c(/C=C/S(=O)(=O)Cc2ccc(OC)c(NCC(=O)O)c2)c(OC)c1 | 0.05 µM | 0.08 µM |
| COc1cc2c(Oc3ccc(NC(=O)C4(C(=O)Nc5ccc(F)cc5)CC4)cc3F)ccnc2cc1OCCCN1CCOCC1 | 2.66 µM | 4.55 µM |
| COc1cc2c(cc1-c1c(C)noc1C)ncc1[nH]c(=O)n([C@H](C)c3ccccn3)c12 | 1.4 µM | > 10 µM |
